According to the supplement of paper PMC3334620:
Whole data set: some 33,000 sequences, median “E-score (-0.5 to 0.5)” near -0.036, cut for the highest 2% near 0.37. The list shows a part of the results.

The sequences below were run against T1, Yer064c (UniProt P40041) (assay: PBM E-score (8-mer binding enrichment) (E-score (-0.5 to 0.5)); higher = stronger / more preferred TF binding; most listed sequences are background and not binding sites). Conditions: protein concentration: 200 nM; construct: GST-full length.
T1 sequence: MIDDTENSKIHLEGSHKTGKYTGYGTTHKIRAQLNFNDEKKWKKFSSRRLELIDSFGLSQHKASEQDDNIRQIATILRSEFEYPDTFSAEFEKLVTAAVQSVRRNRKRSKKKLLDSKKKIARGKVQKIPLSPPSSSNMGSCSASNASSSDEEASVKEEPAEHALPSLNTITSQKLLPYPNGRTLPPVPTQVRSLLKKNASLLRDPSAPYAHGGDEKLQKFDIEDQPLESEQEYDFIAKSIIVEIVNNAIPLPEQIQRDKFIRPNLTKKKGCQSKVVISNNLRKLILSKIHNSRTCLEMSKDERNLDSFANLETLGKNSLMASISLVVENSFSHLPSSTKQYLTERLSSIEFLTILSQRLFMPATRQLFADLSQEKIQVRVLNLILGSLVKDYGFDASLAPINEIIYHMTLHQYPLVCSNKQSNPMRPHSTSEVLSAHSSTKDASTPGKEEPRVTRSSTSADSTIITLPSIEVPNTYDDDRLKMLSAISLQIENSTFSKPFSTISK
Protocol: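 Universal 'all 10-mer' protein binding microarrays (Agilent AMADID 015681) probed with GST-tagged S. cerevisiae TFs (full-length or DBD) made by in vitro transcription/translation (PURExpress), about 100-200 nM. Bound TF was detected with fluorescent anti-GST. Each ungapped 8-mer (which stands for itself and its reverse complement) is scored by the PBM enrichment score (E-score), a modified Wilcoxon-Mann-Whitney statistic from -0.5 to +0.5, computed with the Universal PBM Analysis Suite. Scale: above 0.35 generally sequence-specific binding.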
ACTTACAT was tested, and the “PBM E-score” value was -0.0151. For ACCATAAC, the “PBM E-score” value was 0.184. For AAAAGGAT, the “PBM E-score” value was -0.0899. For GACGTCAC, the “PBM E-score” value was -0.158. In the case of CACGTAAA, the “PBM E-score” value was -0.17. In the case of CCTCTGTC, the “PBM E-score” value was -0.293. In the case of GACTCCAC, the “PBM E-score” value was 0.37. AGCTGCAC was tested, and the “PBM E-score” value was -0.251. In the case of ACCCTTAA, the “PBM E-score” value was -0.0712. With ACTACCCT the “PBM E-score” value was -0.0176. In the case of CTAAGAAA, the “PBM E-score” value was 0.196. For TCGGGCCA, the “PBM E-score” value was -0.109. For CCAACCAC, the “PBM E-score” value was 0.0549. With AACTCACA the “PBM E-score” value was 0.259. For ACTCTTTG, the “PBM E-score” value was 0.231. CGGAGTGC was tested, and the “PBM E-score” value was -0.141. AGCGTTTG was tested, and the “PBM E-score” value was -0.286. GGGCGGGA was tested, and the “PBM E-score” value was -0.114. For AGCAGCAA, the “PBM E-score” value was 0.00509. With ACAGGGGT the “PBM E-score” value was -0.0538. For AGGATCGC, the “PBM E-score” value was -0.171. In the case of CGAGTACA, the “PBM E-score” value was 0.138. For ACGACCGT, the “PBM E-score” value was -0.14. GCAGGCAC was tested, and the “PBM E-score” value was -0.0617. With ACCAACAC the “PBM E-score” value was 0.0631. CCGTCCAA was tested, and the “PBM E-score” value was -0.192. For ATGAACTA, the “PBM E-score” value was 0.0302. With AGGTGCTA the “PBM E-score” value was -0.153. For GATGGTGC, the “PBM E-score” value was -0.357. ATGTCTAG was tested, and the “PBM E-score” value was 0.227. CCTCGGTA was tested, and the “PBM E-score” value was -0.16. CCCAGCCA was tested, and the “PBM E-score” value was -0.107. With ATACGTGA the “PBM E-score” value was 0.187. ACCTATGC was tested, and the “PBM E-score” value was -0.0957. For CGCGTTAG, the “PBM E-score” value was -0.0343. In the case of ACGTCTTC, the “PBM E-score” value was -0.127. In the case of ACGCAAAC, the “PBM E-score” value was -0.0295. For ACCCCAGC, the “PBM E-score” value was -0.127. ATTACGAA was tested, and the “PBM E-score” value was 0.156. With CCCGACAG the “PBM E-score” value was -0.146. With CCCATCAG the “PBM E-score” value was -0.2. For TATTTTAA, the “PBM E-score” value was 0.139. For CGGCATAG, the “PBM E-score” value was 0.0681. With CCCGTTAG the “PBM E-score” value was -0.24. In the case of AGGCCGGC, the “PBM E-score” value was -0.3. For ATATGAAT, the “PBM E-score” value was 0.174. For TCTCAAGA, the “PBM E-score” value was 0.0628. In the case of AATAGAGC, the “PBM E-score” value was 0.102. For GGCCCGGA, the “PBM E-score” value was -0.364. In the case of CCGCGCCC, the “PBM E-score” value was -0.289. For AAGAGTAC, the “PBM E-score” value was 0.154. For CGTATGGC, the “PBM E-score” value was 0.0766. With GTCTTGGA the “PBM E-score” value was 0.0146. For CGAGGTCA, the “PBM E-score” value was 0.117. In the case of GCTCCCGA, the “PBM E-score” value was -0.0307. For CAAAATCA, the “PBM E-score” value was 0.186. With ATAGTACA the “PBM E-score” value was 0.115. In the case of CGGTGTAG, the “PBM E-score” value was -0.0216. For ACTTGCGC, the “PBM E-score” value was -0.0578. For AGCTGCGC, the “PBM E-score” value was -0.176. In the case of TAAATCTA, the “PBM E-score” value was 0.0622. AGGGAAGG was tested, and the “PBM E-score” value was -0.242. CCATTCTC was tested, and the “PBM E-score” value was -0.184. With ACCACTTC the “PBM E-score” value was -0.267. AAGCATCA was tested, and the “PBM E-score” value was -0.0953. For AACGCAAT, the “PBM E-score” value was 0.155. With CTGGATTA the “PBM E-score” value was 0.0758. For TCGCTGCA, the “PBM E-score” value was -0.0065. In the case of TTACACAA, the “PBM E-score” value was 0.18. With CTGTAGAC the “PBM E-score” value was 0.0599. In the case of CGCGCGCG, the “PBM E-score” value was 0.022. With ATACTCGA the “PBM E-score” value was -0.0191. GAGCGCGA was tested, and the “PBM E-score” value was 0.0878. With CACGGAAG the “PBM E-score” value was 0.0525. GCTGCTCC was tested, and the “PBM E-score” value was -0.23. For AACGTAGC, the “PBM E-score” value was -0.116. In the case of ATGACTTA, the “PBM E-score” value was 0.475. In the case of CGCTGTAC, the “PBM E-score” value was -0.0492. With CGCCGTCA the “PBM E-score” value was -0.157. In the case of ACCCTTCT, the “PBM E-score” value was -0.153. TCCGCTAA was tested, and the “PBM E-score” value was 0.0224. With ACATGGGC the “PBM E-score” value was 0.0253. In the case of TAGGCAGA, the “PBM E-score” value was 0.0685. With GCTGGGCA the “PBM E-score” value was -0.136. With AGCGTGAA the “PBM E-score” value was -0.0798. In the case of AGGTCCTC, the “PBM E-score” value was -0.246. With ATCTGACC the “PBM E-score” value was 0.0418. GAGTGATC was tested, and the “PBM E-score” value was 0.0688. For ATTTACGA, the “PBM E-score” value was 0.12. With AAGACCGC the “PBM E-score” value was -0.239. With TCCGGAGA the “PBM E-score” value was -0.0667. For ACCAACTA, the “PBM E-score” value was 0.0682. With CCACCTAG the “PBM E-score” value was -0.00871. CATCATCG was tested, and the “PBM E-score” value was 0.125. With AGTCTTGA the “PBM E-score” value was 0.296. ATACGCAA was tested, and the “PBM E-score” value was 0.108. In the case of ACTGGGGA, the “PBM E-score” value was -0.278. For AACTGGAC, the “PBM E-score” value was -0.122. CGATTCAC was tested, and the “PBM E-score” value was 0.266. With AAGAAGCG the “PBM E-score” value was -0.211. With AATTATCA the “PBM E-score” value was 0.108. With AGGACACG the “PBM E-score” value was -0.0572. With AATAAGCA the “PBM E-score” value was -0.0011. In the case of AGGGTCGC, the “PBM E-score” value was -0.194. In the case of GAACGAGC, the “PBM E-score” value was -0.188. In the case of ACGCCAAG, the “PBM E-score” value was -0.0486. With CCGGGCTC the “PBM E-score” value was -0.0838. With GCGGGAAC the “PBM E-score” value was -0.213. CCCACCAC was tested, and the “PBM E-score” value was -0.12. For GATGGTGA, the “PBM E-score” value was -0.066. GACTGCGA was tested, and the “PBM E-score” value was 0.337. AACCTCCA was tested, and the “PBM E-score” value was -0.267. CGCTGGAG was tested, and the “PBM E-score” value was -0.0957. With CACGAACG the “PBM E-score” value was -0.08. With CTAACGTC the “PBM E-score” value was 0.0985. For GAGGACTA, the “PBM E-score” value was 0.369. In the case of GAGTGACA, the “PBM E-score” value was 0.036. With ACCGCCTG the “PBM E-score” value was -0.209. In the case of ATCTACCA, the “PBM E-score” value was -0.0905. ATGCCTAA was tested, and the “PBM E-score” value was -0.129. AGGTGCGA was tested, and the “PBM E-score” value was 0.00693. In the case of GCTGCTGA, the “PBM E-score” value was 0.0536. For AGAAAGAA, the “PBM E-score” value was 0.0786. In the case of ATTTTTCC, the “PBM E-score” value was -0.0879. CTGGAAGA was tested, and the “PBM E-score” value was 0.0967. For AACCCCAG, the “PBM E-score” value was -0.047. In the case of AACTGCGA, the “PBM E-score” value was -0.0669. In the case of AACCCCCG, the “PBM E-score” value was -0.369. In the case of TCATTCGA, the “PBM E-score” value was 0.132. TAGATAGA was tested, and the “PBM E-score” value was -0.00479. With AAACCGGG the “PBM E-score” value was -0.0401. ATTGCAAC was tested, and the “PBM E-score” value was -0.0826. In the case of CCAACGCC, the “PBM E-score” value was -0.241. CAAGCTGG was tested, and the “PBM E-score” value was -0.146. For CTAGTTCA, the “PBM E-score” value was 0.0478. For AGATCGGC, the “PBM E-score” value was -0.24. With AGGGATAG the “PBM E-score” value was -0.255. CTTTTTGC was tested, and the “PBM E-score” value was -0.0384. With AGATGTAG the “PBM E-score” value was -0.0949. In the case of TACTGATA, the “PBM E-score” value was 0.0643. For AGTCACAC, the “PBM E-score” value was 0.477. In the case of GCGCGTAA, the “PBM E-score” value was -0.14. With ATTTAGAC the “PBM E-score” value was 0.272. AAAGAACC was tested, and the “PBM E-score” value was -0.0415. In the case of AAAGGCCT, the “PBM E-score” value was -0.252. In the case of GCAGCGTA, the “PBM E-score” value was -0.0827. AACTTTCA was tested, and the “PBM E-score” value was -0.102. With GCTCTCCA the “PBM E-score” value was -0.226. In the case of CTGACCGA, the “PBM E-score” value was -0.108. ACGGAGAC was tested, and the “PBM E-score” value was 0.125. For GCTAGCGA, the “PBM E-score” value was -0.142. ACAAAGCG was tested, and the “PBM E-score” value was -0.00891. For GATTAACA, the “PBM E-score” value was 0.367. In the case of ATGCTAGA, the “PBM E-score” value was -0.0387. ACCGAACC was tested, and the “PBM E-score” value was -0.0893. With GGCGTATA the “PBM E-score” value was -0.1. With AAGTTATA the “PBM E-score” value was 0.00722. ACAGCCGT was tested, and the “PBM E-score” value was -0.185. With CGTAGGAA the “PBM E-score” value was -0.0602. With CCATTGGC the “PBM E-score” value was -0.0145. AGTTTCGA was tested, and the “PBM E-score” value was -0.0241. ATTAGCAG was tested, and the “PBM E-score” value was -0.0796. TCGCGCCA was tested, and the “PBM E-score” value was 0.0373. ATTACTAC was tested, and the “PBM E-score” value was 0.073. In the case of TCATTAGA, the “PBM E-score” value was 0.19. AGACCTGG was tested, and the “PBM E-score” value was -0.261. With ATGGATGG the “PBM E-score” value was -0.0396. With CGGCTCGA the “PBM E-score” value was 0.195. In the case of ATTACCGG, the “PBM E-score” value was 0.0416. CATCCTGG was tested, and the “PBM E-score” value was -0.0782. With TCTAGTAA the “PBM E-score” value was -0.0245. For ACTCGGGC, the “PBM E-score” value was 0.12.
